# Source: the supplement of paper PMC3334620
# The full ranking holds about 33,000 sequences; the median of “E-score (-0.5 to 0.5)” is about -0.054, and the highest 2% start at about 0.35. This is one part of the list.
# Molecular target: T1, Stb5 (UniProt P38699)
# T1 sequence: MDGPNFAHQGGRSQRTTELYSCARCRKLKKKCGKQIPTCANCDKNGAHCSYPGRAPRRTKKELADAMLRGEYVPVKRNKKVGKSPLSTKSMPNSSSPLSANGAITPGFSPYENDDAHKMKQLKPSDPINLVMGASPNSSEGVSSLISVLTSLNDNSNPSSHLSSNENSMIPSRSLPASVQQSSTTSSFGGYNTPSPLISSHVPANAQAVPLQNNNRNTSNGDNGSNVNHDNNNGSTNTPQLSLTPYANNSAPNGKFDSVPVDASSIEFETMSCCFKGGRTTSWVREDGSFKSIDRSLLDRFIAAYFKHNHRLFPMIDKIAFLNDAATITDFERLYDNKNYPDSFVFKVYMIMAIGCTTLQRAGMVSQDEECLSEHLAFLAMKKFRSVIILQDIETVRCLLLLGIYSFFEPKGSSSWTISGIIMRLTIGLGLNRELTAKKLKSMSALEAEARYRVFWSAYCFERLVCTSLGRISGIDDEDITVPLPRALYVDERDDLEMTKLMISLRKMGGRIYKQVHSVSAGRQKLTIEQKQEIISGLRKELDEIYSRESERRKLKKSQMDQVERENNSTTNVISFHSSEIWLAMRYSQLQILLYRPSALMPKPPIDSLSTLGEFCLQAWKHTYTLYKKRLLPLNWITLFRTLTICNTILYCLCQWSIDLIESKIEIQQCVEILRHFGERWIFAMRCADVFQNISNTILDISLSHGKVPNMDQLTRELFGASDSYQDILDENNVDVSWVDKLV
# Test: PBM E-score (8-mer binding enrichment) (E-score (-0.5 to 0.5)); higher = stronger / more preferred TF binding; most listed sequences are background and not binding sites
# Conditions: protein concentration: 200 nM; construct: GST-full length
# Method: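 Universal 'all 10-mer' protein binding microarrays (Agilent AMADID 015681) probed with GST-tagged S. cerevisiae TFs (full-length or DBD) made by in vitro transcription/translation (PURExpress), about 100-200 nM. Bound TF was detected with fluorescent anti-GST. Each ungapped 8-mer (which stands for itself and its reverse complement) is scored by the PBM enrichment score (E-score), a modified Wilcoxon-Mann-Whitney statistic from -0.5 to +0.5, computed with the Universal PBM Analysis Suite. Scale: above 0.35 generally sequence-specific binding.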
row,Sequence,PBM E-score
1,AGGGCGGA,0.338
2,AAGGCTGT,-0.145
3,AGGGCCTC,-0.187
4,CGCGGTAA,0.343
5,GGTCGAAA,0.0139
6,GACCCTAC,-0.0737
7,GGTACTCA,-0.0471
8,ATAGCGAT,-0.136
9,CTGCCGTA,-0.0524
10,GCACCATA,-0.081
11,CTTTTGTC,0.125
12,TATCACAA,-0.0631
13,CCCTTCAC,-0.228
14,GGTTCGTA,-0.00108
15,CGCTCCAC,0.0595
16,CATTTTAG,0.189
17,ACAGCCTC,-0.182
18,TCTTTACA,-0.117
19,ATGGCATG,0.0369
20,AGCTAAAA,-0.139
21,TAGAGCAA,-0.202
22,ATTCGAAG,-0.21
23,GCAAAGCA,-0.209
24,GCTCGGCC,0.105
25,AGGGCTCA,-0.23

row,Sequence,PBM E-score
1,ACAGTACT,-0.197
2,CTCCCGTC,0.148
3,AATCGGGA,0.182
4,CTATCGAC,-0.212
5,CTGTACGC,-0.0128
6,GCCGAAAA,0.168
7,AGTCAACT,-0.23
8,CTAGTGCA,-0.0477
9,CAATCGGC,0.184
10,ACAAATTC,0.0583
11,GCCAAACA,-0.0149
12,TGTGCCAA,-0.147
13,GCCGCACC,0.184
14,CCTGACAG,-0.193
15,CCAAGCTC,-0.0641
16,CACAATAA,-0.2
17,CAGTATTC,-0.0905
18,CTACGTAA,0.0153
19,ATGCCTGC,-0.0616
20,CATACAGA,-0.155
21,ATGGAGGC,0.0494
22,AAGTTCGA,-0.0284
23,GCCGTCAA,0.174
24,CCTGATCC,-0.125
25,CGAGCTTA,-0.0828

row,Sequence,PBM E-score
1,AAGCTTGT,0.0522
2,CTTCTGCC,-0.0456
3,GTTTGGCA,0.0166
4,AAGGTTTG,-0.0853
5,AGCGACAA,-0.163
6,TATGGCAA,-0.175
7,CTGGAGCA,-0.295
8,GACGGCTC,0.0639
9,CCTATCTC,0.00264
10,AAATACCC,0.279
11,CCAATCTC,0.0245
12,ACCTAACC,0.0301
13,ATGGTATG,-0.0521
14,GTATCTTA,0.104
15,CCAAATAA,-0.0406
16,ACATGACA,-0.122
17,AAATCAAG,-0.107
18,ACCGCTTC,0.318
19,CCAGGTGA,-0.289
20,AGGGGGAC,-0.248
21,GAGACGAA,-0.175
22,CGTGTTCC,0.0976
23,CGAGACCC,0.079
24,CTTCGTTC,-0.327
25,GCGTCTCC,0.0885

row,Sequence,PBM E-score
1,ATAATGAT,-0.192
2,CTTTCTCA,-0.0284
3,GAAAAAAC,0.118
4,AGATGGAG,-0.228
5,CTTGATGC,-0.00685
6,AGGTGCCA,-0.0687
7,CACCTGGC,-0.239
8,GAGTAGGC,0.0237
9,ATACGGTA,0.201
10,ATACCACA,-0.206
11,GCGGTAGC,0.159
12,TCGGCAGA,0.149
13,ACCCAACC,-0.182
14,AAGAACTT,-0.103
15,GTCCCTCA,-0.0746
16,CGGTCTCA,0.376
17,GTCAAGCA,0.0133
18,AGTTAAAT,0.0541
19,ATTCAACC,-0.113
20,TAAGTGGA,-0.0008
21,AGTCGCTG,-0.225
22,CCGGAAGC,0.138
23,ATCTCCAA,-0.0741
24,ACAGTAAG,-0.239
25,CGCTCGTA,-0.0378

row,Sequence,PBM E-score
1,CTACAATA,-0.061
2,TAACTGCA,-0.27
3,AAGTGAGA,-0.106
4,TAGCGGGA,0.194
5,GCTACAAC,-0.0936
6,ATCATCAA,-0.0837
7,ATTCTCTC,-0.173
8,TCGATGAA,-0.0714
9,CCTCCGGA,0.219
10,GTGTTTTA,0.164
11,AACGAGGT,-0.0464
12,AACACCAG,0.011
13,CCGAGCAG,0.05
14,ATTAACCA,-0.0124
15,AACTGGTA,-0.077
16,TTTCAAAA,-0.0616
17,TAGGGGGA,-0.0977
18,GTTCCGAA,0.112
19,AGTACACT,-0.275
20,TCAGCAGA,-0.329
21,CTATATTC,-0.0643
22,CTAATGGA,-0.00769
23,ACGAGGCT,-0.0356
24,CCCCGATC,0.374
25,GGGCATGA,-0.083

row,Sequence,PBM E-score
1,CACCGCCG,0.405
2,CAATATGA,-0.108
3,ATACCCTA,-0.222
4,CGTTGCAA,-0.109
5,AATCTCTA,-0.302
6,GCTAAGAC,0.1
7,CTGTATCC,-0.00766
8,CCGTTGGC,0.212
9,ATAAACGC,0.121
10,CAAGCTCG,-0.0302
11,GTAGCCCA,-0.126
12,GCAGGGGA,-0.168
13,CGGAACGC,0.0718
14,AGCCTGGC,-0.0727
15,GCTATAGA,-0.0336
16,CGGACCTC,0.261
17,CCGGAGTC,0.279
18,CGCTTGGC,0.0377
19,CGAGACTA,-0.0587
20,AGTTTAAC,0.066
21,GATGCGGC,0.0604
22,AGTAGACC,-0.104
23,CTGCCTGC,-0.0567
24,CACCCCTA,-0.0642
25,GGGGCCAA,-0.0242

row,Sequence,PBM E-score
1,AGAGCTGG,-0.0753
2,GGAGCCCA,-0.263
3,GACTGTAA,-0.0228
4,GCCTTTGA,-0.169
5,ACTTAGGA,-0.225
6,GTAGTTAA,0.0894
7,AGCTCCGA,0.405
8,CCGCTAAG,0.219
9,CGGGCCCG,0.284
10,AGTAGATG,-0.164
11,CAGGCCAC,-0.187
12,CAGACGCG,-0.0888
13,GGGAGTAA,0.244
14,GTGACACA,0.104
15,AGGGGTAC,-0.177
16,CTATTCAA,-0.201
17,ACCGGGAA,0.261
18,AGCACGCG,-0.0899
19,ACTCATTG,-0.149
20,AGCTTGGC,-0.123
21,CTAGGGCC,0.0792
22,CCGATCAC,0.277
